Data: PubChem BioAssay (Tox21)
Inconclusive means that the source gave no clear call. Such entries were picked first, then a sample of the others. Entries that show only a call come without a potency. A potency beside an inconclusive call is a rough fit, not a confirmed value. Activity calls are given as the source filed them. Calls follow the shape of the dose curve; as a rule, active = well fitted activation curve with a large enough effect in the signal ratio in the repeat runs (not every such curve was filed as active); inconclusive = weak or mixed curves, or effect the other way; inactive = no such curve, though single readings can be large or run the other way; the % refers to the signal ratio.
Potency is read from the fitted curve at half-maximal effect; tags tell the direction and shape of the fitted curve or compound fluorescence and quenching.

Each compound was assayed against Peroxisome proliferator-activated receptor gamma (Homo sapiens) (UniProt P37231) (assay: qHTS assay to identify small molecule agonists of the peroxisome proliferator-activated receptor gamma (PPARg) signaling pathway (AID 743094)). Conditions: HEK293H PPARg-UAS-bla, beta-lactamase FRET ratio, 17 h; activation: at 57 µM (top of the series) unless noted.
Sequence of UniProt P37231 (P37231 whole entry, looked up): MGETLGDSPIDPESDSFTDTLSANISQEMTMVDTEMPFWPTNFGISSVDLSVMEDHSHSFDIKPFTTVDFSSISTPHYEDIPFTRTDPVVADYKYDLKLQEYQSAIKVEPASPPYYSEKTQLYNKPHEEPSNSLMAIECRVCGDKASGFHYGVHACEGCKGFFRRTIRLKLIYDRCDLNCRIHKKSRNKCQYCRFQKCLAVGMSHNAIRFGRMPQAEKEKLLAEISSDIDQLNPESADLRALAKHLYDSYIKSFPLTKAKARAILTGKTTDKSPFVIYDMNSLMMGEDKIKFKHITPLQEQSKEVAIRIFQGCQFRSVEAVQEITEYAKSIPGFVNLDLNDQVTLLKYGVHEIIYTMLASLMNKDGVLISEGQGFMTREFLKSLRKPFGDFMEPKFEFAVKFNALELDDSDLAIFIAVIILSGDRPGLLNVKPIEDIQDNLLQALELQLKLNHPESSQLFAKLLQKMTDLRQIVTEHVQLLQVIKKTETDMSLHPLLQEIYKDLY
Summary of the method: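 Reporter activation was scored by fluorescence of cleaved LiveBLAzer B/G substrate (1 h, room temperature) in PPARg-bla HEK293H cells previously treated 17 h at 37C with DMSO-dissolved compounds.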
In the case of `CNC(=O)Nc1ccc(Cl)c(Cl)c1`, the Potency is reported as “inactive”.
In the case of `CCCCCOc1ccc(C2SC(=O)NC2=O)cc1OCC` (stereo not drawn), the Potency is reported as inconclusive: 3.79 µM [activator, partial curve].
In the case of `O=C1CCN(c2ccccc2)N1`, the activation is reported as inconclusive: -17.3% [at 78.9 µM].
For `COC=O`, the activation was inactive: 1.2% [at 7.08 µM].
In the case of `CC(C)c1ccc2c(C(C)C)cc(C(C)C)c(S(=O)(=O)O)c2c1`, the Potency is reported as “inactive”.
With `CC(C)(C)c1ccc(-c2ccc(C(C)(C)C)cc2)cc1` the Potency was “inactive”.
For `CCCCC(=O)O[C@]1(C(=O)CO)CC[C@H]2[C@@H]3CCC4=CC(=O)CC[C@]4(C)[C@H]3[C@@H](O)C[C@@]21C`, the Potency was inconclusive: 30.1 µM [rising, partial curve, poor fit].
For `CCC(=O)O[C@]1(C(=O)CCl)[C@@H](C)C[C@H]2[C@@H]3CCC4=CC(=O)C=C[C@]4(C)[C@@]3(F)[C@@H](O)C[C@@]21C`, the Potency was “inactive”.
With `O=c1[nH][nH]c2ccccc12` the activation was inconclusive: -12.4% [at 78.9 µM].
For `CCN(CC)CCc1nc(-c2ccccc2)no1`, the Potency was “inactive”.
With `CC/C=C\CCOC(=O)CCCCC` the Potency was “inactive”.
In the case of `CC1CC(=O)NN=C1c1ccc(NCC(C)(C)NCC(O)COc2cc(Cl)ccc2C#N)cc1` (stereo not drawn), the Potency is reported as inconclusive: 30.1 µM [rising, partial curve, poor fit].
`O=C(OCCc1ccccc1)c1ccccc1` was tested, and the Potency was “inactive”.
